Whole data set: some 33,000 sequences, median “E-score (-0.5 to 0.5)” near -0.016, cut for the highest 2% near 0.32. This is one part of the list.
What follows are sequences tested against T1, Stp1 (UniProt B3LFK1) (assay: PBM E-score (8-mer binding enrichment) (E-score (-0.5 to 0.5)); higher = stronger / more preferred TF binding; most listed sequences are background and not binding sites). Settings: protein concentration: 200 nM; construct: GST-full length.
T1 sequence: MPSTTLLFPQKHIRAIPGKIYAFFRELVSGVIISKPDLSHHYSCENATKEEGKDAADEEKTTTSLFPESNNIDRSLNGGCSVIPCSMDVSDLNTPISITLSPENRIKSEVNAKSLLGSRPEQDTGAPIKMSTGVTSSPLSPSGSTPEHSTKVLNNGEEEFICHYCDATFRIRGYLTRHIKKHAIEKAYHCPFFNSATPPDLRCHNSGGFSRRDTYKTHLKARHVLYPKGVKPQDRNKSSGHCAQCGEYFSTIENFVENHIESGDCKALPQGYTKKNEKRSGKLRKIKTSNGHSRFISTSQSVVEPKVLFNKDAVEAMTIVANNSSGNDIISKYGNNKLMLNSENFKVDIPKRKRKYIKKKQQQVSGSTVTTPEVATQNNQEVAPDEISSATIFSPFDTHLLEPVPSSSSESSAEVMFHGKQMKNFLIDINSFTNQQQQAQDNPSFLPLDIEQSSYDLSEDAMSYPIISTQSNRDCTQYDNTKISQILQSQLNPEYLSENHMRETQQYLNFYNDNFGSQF
Procedure: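 Universal 'all 10-mer' protein binding microarrays (Agilent AMADID 015681) probed with GST-tagged S. cerevisiae TFs (full-length or DBD) made by in vitro transcription/translation (PURExpress), about 100-200 nM. Bound TF was detected with fluorescent anti-GST. Each ungapped 8-mer (which stands for itself and its reverse complement) is scored by the PBM enrichment score (E-score), a modified Wilcoxon-Mann-Whitney statistic from -0.5 to +0.5, computed with the Universal PBM Analysis Suite. Scale: above 0.35 generally sequence-specific binding.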

Sequence	PBM E-score
CCGTTGAC	-0.0284
CATACCGG	-0.0661
ATATTCAT	0.147
AGCGGTTA	-0.145
AGGGAGCG	-0.194
ATGCCTTC	0.154
ACGATTGG	0.0977
CCATCTCG	-0.0786
CTGGTGTA	-0.191
AGAGAAGC	0.0567
GGCTGGCA	-0.274
GCTCTACA	0.126
AGTACTAC	0.0547
CAAGGTAA	0.0583
CTCTTATC	0.00982
CTTATCAA	0.188
ATGGATTG	0.0558
AAAATCAG	0.0096
ACAACAGG	-0.0601
GATTTTAA	0.17
ATGAGTGC	0.168
ATGCAAAT	-0.00759
CTAAAAAA	0.267
ATTCATAC	0.181
AACCATCA	-0.169

Sequence	PBM E-score
CCCGTGAC	-0.0372
AGGCGACG	0.209
GGGGACCC	-0.358
AATCTCCT	-0.266
CATAGCTA	-0.27
CGAGGCCA	-0.178
ATGGAGAG	-0.0615
GTCGGATA	-0.0528
ACTATATC	0.0735
AGCGGAGA	-0.132
ACAAGGGC	-0.0113
AGTGTAAG	-0.0377
CCCTAAGG	-0.258
CAGGGCGC	0.363
GGCGACAA	0.3
ACAGCCAA	-0.0404
CGCGGAAC	0.383
TCAGTCAA	0.0441
GATTGCGC	0.232
AGAAGTAG	-0.0353
ATATCCCA	0.111
CGTCAATC	0.147
CAGTTGTA	-0.0706
ACTGGTTA	-0.0769
ACTTTAAC	-0.0213

Sequence	PBM E-score
ACAGGCCA	-0.118
ATTTTGGC	0.0882
CTGTTGAA	0.139
ATCGTGTG	0.186
CTTTCCTA	-0.137
AGGTTGGA	-0.133
ATTTCACC	-0.0158
CAACGTTC	-0.242
ACTCAAGG	-0.176
TACCCCGA	0.0291
GTACAAAA	0.198
AGAGCATA	-0.0735
CGCAGCAC	0.27
AATATGGG	-0.0391
ACATACAT	0.0575
CTTGCTCA	-0.149
ACAGCAAA	0.172
CGTGGAAA	0.177
AGTTGCAT	0.122
ACACCCGG	0.0218
GCCGGAAC	0.0527
ATAGTTCA	0.128
ATAATGCA	-0.0333
AATCCCGA	0.0853
ACATTTCA	-0.00157

Sequence	PBM E-score
CGTCTGCC	0.0318
ATTCTTGC	0.112
GCTCGGAC	-0.166
AACTACGC	0.106
AAGACCAG	-0.234
GATATATC	0.106
ACTGAGTA	-0.242
CTGGAATA	-0.0227
GTCCACAC	0.049
GTCACCCA	-0.21
CTTACACA	-0.0994
AACAGGCA	-0.018
CACGTTGG	-0.119
GTAGCAAC	0.0406
CACCGCAG	-0.01
ACTCCATA	-0.165
CGTCGACC	-0.011
ATAGCCGC	0.298
GAGCGCCA	0.0261
CGTTTAGA	0.144
AAGGTTCT	-0.0888
CCTGGTTC	-0.0663
CTATGTCC	-0.184
ATACGGAC	0.105
AAGAAAAC	0.0611

Sequence	PBM E-score
ATATCGAA	0.0808
ACGATCTC	-0.108
ACACACCG	-0.152
AGTCTCTG	-0.0591
ATCAAGTC	-0.081
CAGCGGGA	-0.174
ACGATTTC	0.152
AGATCGAT	-0.165
AGAAAATC	0.0861
CCGTGAAC	0.0525
CGATTTTA	0.179
ACCCACAG	-0.148
CAGAAATC	0.103
CAGACGTC	-0.116
CGCGAATA	-0.0469
CCCATGGG	0.128
GTATACTA	-0.126
ACCATGGG	-0.161
GCAGGTAC	-0.167
ACCCTAAA	-0.0152
TATTAGAA	0.167
GCCGCAAA	0.309
AGGAAAAA	0.0874
GGAAAAAA	0.149
CAAGACGC	-0.0219

Sequence	PBM E-score
ATTCGATA	-0.0104
TCCGGTAA	-0.0422
GAGAAAAA	0.13
CACCAAGG	-0.0658
ATGCTACC	-0.0455
CGCTACAG	-0.0259
AAAGCGAT	0.0601
AATACCTA	0.102
TCAAGAAA	0.223
CGTAATGC	0.0853
AGAAGCAT	0.0027
CGAGTGCA	0.147
AGCTTATC	0.036
CGGCTGAG	-0.00052
CTCCCGAG	-0.367
ATTGCGAC	0.0715
CACTTCTC	-0.174
AGGCGGAT	-0.0693
GCGGTGGA	-0.0823
CCTTACTC	0.0999
CATAGCAA	0.0603
GGTGAGCA	-0.285
GCATGTAC	-0.00931
CTCGTAAG	0.199
CGAAGTAG	-0.068

Sequence	PBM E-score
ACGCAGGC	-0.0284
TAAGGTGA	-0.113
AAGTCCTG	-0.186
AAAAAGGA	0.00823
CCTGAAGC	-0.308
TGTTAAAA	0.12
ATATTAAA	0.302
CTTTACGA	0.0486
CGGTACCA	-0.182
ATTAATAC	0.17
GAGGCCTC	-0.0558
ACAACGAC	0.011
CTCAGGTA	-0.268
ACGGCTCC	0.449
ATGTACTG	-0.104
ACGTTAGC	0.159
CAGTAAAC	0.077
CCTAGGCA	-0.0124
CAAGACAA	0.187
AAAACTAT	0.0296
AATCGGAG	-0.0886
CTAGATAC	0.0423
ACCTGGAC	-0.303
AATTTATC	0.267
AGTAAAGA	-0.0377

Sequence	PBM E-score
TTGTACAA	0.15
AGGTAAAA	0.0924
GCAGCTGA	0.0289
AATCTTTG	0.141
CTACAAAA	0.0378
GAACACCC	-0.106
GCGACAGA	-0.0165
CTAGGTCC	-0.102
AGCCACCG	-0.00661
TGCTCCCA	-0.211
GGGTGCCA	0.0789
AGCCAAGC	-0.189
GCTCTCAA	0.0022
AAGCCGCA	0.386
ATAGCAGA	-0.0278
ATGGTTTG	0.0184
GATTCCCC	-0.246
AACTGTTG	-0.235
GAAGTCGA	-0.109
CAAAACAG	0.012
GGGAACCA	-0.205
GAAAGGCC	0.272
GGGGACTA	-0.358
CTGGTACA	-0.0824
CCTTTCGA	0.17

Sequence	PBM E-score
GCGCTTTA	0.201
CGCTTCAA	0.0401
ACTACACG	-0.00839
ATCTTTTG	0.0677
AGTTCTTC	0.00965
CTGGCCTA	-0.316
GAGCAACA	0.0625
CGATCAAG	-0.0842
AGTTACTA	-0.0212
GACTAGGA	-0.12
AACTATCG	-0.203
GCGAGATA	0.0771
TCGGACCA	0.00747
CTATGACC	-0.151
ACGAGAGC	-0.125
ACTAGCTA	-0.179
AGGGCTAA	0.0399
CACGGCTA	0.415
AACGCGCT	0.0273
CCACTGGC	-0.0395
GCAAATTA	0.0644
CCTGCAAG	-0.173
CGAAGACA	-0.0318
AGGCACTG	0.291
TGACGGAA	-0.018

Sequence	PBM E-score
AGAGCCCT	-0.0706
ACTGGGAG	-0.257
CGGCGAGC	0.307
GCGATAAA	0.216
AATAGTAA	0.0925
AGCGGGGG	-0.287
CAGGCGAA	0.0577
GCTGACAC	0.0133
AGGGGTCA	-0.363
CATTCGTA	-0.0576
TACTCTAA	0.034
ACATCATG	-0.173
ATGGCCCG	-0.0564
AAGGCTCA	0.16
AAGTTGCC	0.168
CCCGTAGG	-0.209
AAAGCGTT	-0.142
GACAGGGA	0.0424
CGAGTTAG	-0.00325
CCTAACTA	0.133
CGCTCCCA	-0.109
CCTCCATA	0.0205
ATAGCCGG	0.0799
CTACACAA	0.0422
GGCACCCA	0.211

Sequence	PBM E-score
AACCGCCC	-0.149
CACAATGC	0.00061
CCTGCAGA	-0.117
GCGTCGTA	0.159
GCATAACC	-0.136
ATACCCGG	-0.0802
CACTGGGG	-0.231
CAGACAAA	0.13
ATGGAAAC	-0.0997
GTTTGTAA	0.0806
CCCAGATC	-0.286
ACATTCTG	0.0191
CAAGAGTC	-0.177
AAGGCTAA	0.124
GACTGCCC	-0.187
GATGGAGC	0.0391
ACACTTAG	0.0417
GCAGTGGA	-0.0787
GATTACGA	0.103
AGCGGGAC	-0.257
GAAAGCAC	0.064
ATGAATCG	0.125
CACGGCGA	0.474
CCTTCACA	-0.0862
ACCGACGC	0.0223

Sequence	PBM E-score
AACTTCTG	-0.0279
CCGCGTAC	0.15
CCAAGGGA	-0.321
ACACCAAG	0.00503
CTGACGGA	-0.146
AATCGAGC	0.0349
CGAGCTGA	-0.115
AGCAGCAT	-0.0583
AGGTGACC	-0.244
GGTGTTCA	0.0178
CCCACACC	-0.0557
TCCTGGAA	-0.313
ACTACTCC	-0.0292
GATGTATA	0.0575
AAGTTGCT	0.0114
CTAGCGTA	-0.336
AGACTAGC	-0.228
ACCTGTTA	-0.23
CTCACCGA	0.0639
GTACCTAC	-0.136
ACTTTTGC	0.207
AGGCATTG	0.24
GGACACTA	-0.0339
AGTATCGA	0.206
ACACCCAA	-0.136

Sequence	PBM E-score
CGACAGCG	-0.022
TACGAATA	0.0335
ACCCGCCG	0.214
GCTAAGGA	0.0235
ACAGGACA	-0.0257
CGCACTGA	-0.0386
GCCATTGA	0.226
ATTTCAGG	0.0844
CCAACTTA	0.132
GAAGCTGC	-0.188
CCTTTGAC	-0.0626
CTCTTGGC	-0.158
CGCGTCAC	0.138
CGAAGGCA	0.116
AAGTGACC	-0.218
ATGTTGGC	0.0025
TCAGCCAA	-0.203
ATCTCGCA	0.117
AGCAGCCG	0.187
AGAATGCG	0.0201
TGATGGAA	-0.153
ATGTCACA	0.0996
GTTTAAAA	0.277
AATGTGAG	0.0283
AAGACTAA	0.0167

Sequence	PBM E-score
ACAGGCGA	-0.0206
CTAGTAAA	0.145
ACAGCTCG	-0.121
GACCTTCA	-0.201
ATTAAACG	0.19
CGACTGCC	-0.0225
ATCGGTAC	-0.0209
TAGCGCTA	-0.0704
ATCATAGA	0.18
ACATGCCG	0.369
AAGGACGT	-0.0457
TATGGGGA	0.0926
AAAGTCGT	-0.153
AAGCGGCT	0.354
CAAAACTG	-0.0236
ATCCCAAC	-0.118
CTATCGTC	-0.184
CTGGCTTC	-0.108
ACGAAAAC	0.226

— the supplement of paper PMC3334620
